About 200 (0.44%) of roughly 45,000 compounds were called active. Inconclusive results (about 7%) are left out. The call rests on the fitted dose curve; in most records, active means well fitted activation curve with a large enough effect; inconclusive means small, poorly fitted or top-dose-only effect; inactive means no such curve, though single readings can be large or run the other way. The list shows a part of the results.
test: qHTS of TDP-43 Inhibitors: NCGC Sytravon Library Screen; conditions: yeast TDP-43 toxicity rescue, BacTiter-Glo growth, 24 h; series mostly up to 46.1 µM; growth rescue (activation): at the top concentration; further: 0% is about no effect; nearly all actives have a fitted effect of over 55% in size
How it was run: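 TDP-43-expressing yeast, pregrown in raffinose, seeded at OD600 0.02 in galactose medium with compound for 24 hr at 30 deg C. Growth read by BacTiter-Glo luminescence, so rescue of toxicity appears as activation.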

Compound	growth rescue (activation)
COc1ccc(CNC(=O)c2nccnc2CO)cc1	inactive: 5.37%
CC(C)OC(=O)c1ccc(OC(=O)c2cccnc2)cc1	inactive: 4.05%
O=C(CCNS(=O)(=O)c1ccc(Br)s1)NCc1ccccc1Cl	inactive: 16.5%
CC1(C)CC(=O)c2c(nc3ccccc3c2N)C1	inactive: 8.47%
Cc1cc(F)ccc1-c1cc(C(=O)NCc2ccc(C(F)(F)F)cc2)[nH]n1	inactive: 19.7%
O=C(COC(=O)c1ccccn1)Nc1c(Cl)cccc1Cl	inactive: 16.1%
CCOc1ccc(CN2C(=O)c3ccccc3C2C(=O)NC(C)CC)cc1OC (stereo not drawn)	inactive: -14.5%
Cc1cc(C(=O)Nc2ccc(N3CCCC3)c(Cl)c2)ccc1[N+](=O)[O-]	inactive: 19.9%
COc1ccc(-n2c(-c3ccc(Br)cc3)c[n+]3c2CCC3)cc1	inactive: -0.771%
CCc1nc2c(OCC3COc4ccccc4O3)cccn2c1N(C)C(=O)c1ccccc1F (stereo not drawn)	inactive: 3.04%
Cc1csc(SCC(=O)Nc2ccc3[nH]c(=O)[nH]c3c2)n1	inactive: 7.89%
O=C(CCc1nnc(C2(c3ccc(Cl)cc3)CCC2)o1)NCCCn1cccn1	inactive: -1%
COc1cc2c(cc1OC)CN(C(=O)CCOc1ccccc1)CC2	inactive: 6.13%
Cc1ccc(NC(=O)CNCc2cccs2)cc1Br	inactive: -19.2%
CCc1nnc2cccc(Cl)n12	inactive: -12%
C=CCC1C=C(C)CC(CC=C)N1 (stereo not drawn)	inactive: 10.9%
Cc1ccc(NC(=S)N2CCCC(CO)C2)c(C)c1 (stereo not drawn)	inactive: 2.74%
COc1nc(N(C)C)nc(N(C#N)S(=O)(=O)c2ccc(C)cc2)n1	inactive: 5.69%
c1ccc(-c2nc(NCc3cccs3)c3ccccc3n2)cc1	inactive: 10.1%
CN1CCN(c2nc(-c3cccc([N+](=O)[O-])c3)nc3ccccc23)CC1	inactive: -22.5%
O=C1S/C(=C/c2ccccc2F)C(=O)N1CCN=C1NS(=O)(=O)c2ccccc21	inactive: 14.5%
CCOc1ncccc1C(=O)Nc1cc(S(=O)(=O)N2CCOCC2)ccc1OCC(F)(F)F	inactive: -21%

Compound	growth rescue (activation)
COc1ccc(C2NC(=O)NC(C)=C2C(=O)Nc2ccccc2)cc1OC (stereo not drawn)	inactive: -13.5%
O=C(c1ccc(Cl)cc1)C(CN1CCCCC1)c1ccccc1 (stereo not drawn)	inactive: 29.3%
Cc1ccccc1C(=O)N/N=C1/SCC(=O)N1Cc1ccc2c(c1)OCO2	inactive: 3.13%
Cc1ccc(N(C(=O)c2csnn2)C(C(=O)NC(C)(C)C)c2ccccn2)cc1 (stereo not drawn)	inactive: 4.63%
CCc1cccc(NS(=O)(=O)c2ccc3c(c2)CCC(=O)N3)c1	inactive: 1.53%
CCN(CC)S(=O)(=O)c1cccc(NC(=O)CSc2nc3ccccc3[nH]2)c1	inactive: -8.25%
COc1ccc2cc(C)c3nnc(SCc4cccnc4)n3c2c1	inactive: -1.49%
Cc1cccc(NC(=O)CSc2nnc(NC(=O)C3CC3)s2)c1C	inactive: 1.87%
CCCCn1c(=O)[nH]c(=O)c2c1nc(-c1ccc([N+](=O)[O-])cc1)n2CC	inactive: 7.95%
Cc1ccc(C(C(=O)NCc2ccccc2)N(Cc2ccco2)C(=O)c2snc(C(N)=O)c2N)o1 (stereo not drawn)	inactive: -6.23%
COc1cc(/C=N/NC(=O)c2cccnc2)ccc1OC(=O)c1cc(OC)c(OC)c(OC)c1	inactive: -2.09%
CC1CCCC(NC(=O)CN2CCN(S(=O)(=O)c3ccc(Br)s3)CC2)C1C (stereo not drawn)	inactive: 20.3%
COc1ccccc1NC(=O)Nc1ccncc1	inactive: -12.2%
COc1ccc(-c2cc(CCCC(=O)NCCc3ccccc3)no2)cc1	inactive: 11.7%
Cc1ccc(NC(=O)C(C)OC(=O)c2ccc(NS(=O)(=O)c3ccc(F)c(F)c3)cc2)cc1 (stereo not drawn)	inactive: 2.68%
COc1cc2c(cc1OC)CN(C(=O)Cc1ccccc1)CC2	inactive: 20.6%
Cc1ccc(S(=O)(=O)N2CCN(C(=O)NCc3ccc(C(=O)O)cc3)CC2)cc1	inactive: -5.36%
CN(CC(=O)Nc1ccccc1Br)CC(=O)Nc1ccccc1C(F)(F)F	inactive: 19.7%
O=C(COC(=O)c1ccc2c(c1Cl)C(=O)c1ccccc1C2=O)NC1CCCCC1	inactive: 14.9%
COc1ccc(/C=C/C2=CCN(Cc3ccc(OC)cc3)CC2)cc1	inactive: -8.94%
O=C(Cc1cn2ccsc2n1)Nc1cccc2cnccc12	inactive: 14.2%
COc1ccc(NC(=O)COC(=O)C2CCN(C(=O)c3ccc(Cl)cc3)CC2)c([N+](=O)[O-])c1	inactive: 6.87%

Compound	growth rescue (activation)
CCOC(=O)c1ccc(NC(=O)c2cccc(S(=O)(=O)N3CCOCC3)c2)cc1	inactive: 16.8%
Cc1cccc2cc(CN(Cc3ccco3)C(=O)c3ccncc3)c(=O)[nH]c12	inactive: -8.66%
COc1ccccc1CC(NC(C)=O)C(=O)NC1CCN(C(=O)Nc2ccccc2F)CC1 (stereo not drawn)	inactive: 8.95%
CC1(Cc2ccc(Cl)cc2)C(=O)Nc2ccc(S(=O)(=O)NC3CCCCC3)cc21 (stereo not drawn)	inactive: 14.1%
CSc1nc(SCC(=O)NCC2CCCO2)c2c3c(sc2n1)CN(C)CC3 (stereo not drawn)	inactive: -12.2%
Cc1cccc(C)c1OCc1cc(C(=O)N(C)Cc2nc3ccccc3[nH]2)no1	inactive: -9.44%
CCOC(=O)c1sc(NC(=O)CSc2nccn2C)nc1C	inactive: 7.06%
CC(c1ccco1)N(C(=O)c1ccc(Cl)c([N+](=O)[O-])c1)c1ccccn1 (stereo not drawn)	inactive: 18.6%
CCN(CC)S(=O)(=O)c1cc(NC(=O)CN2C(=O)NC(C)(c3ccccc3)C2=O)ccc1C (stereo not drawn)	inactive: 10.3%
O=C(NC1CC2CCCC(C1)N2C(=S)Nc1ccc(Cl)cc1)C1CC1 (stereo not drawn)	inactive: 3.75%
Cc1ccc(-c2noc(CN3CCC(C(N)=O)CC3)n2)cc1	inactive: 28.7%
CCOC(=O)c1c(NC(=O)c2cc(OCC)c(OCC)c(OCC)c2)sc2c1CCCCC2	inactive: 0.0143%
Cc1ccc(CNC(=O)C2CCN(S(=O)(=O)c3cccc4nonc34)CC2)cc1	inactive: -2.88%
Nn1c(SCC(=O)N2CCc3ccccc3C2)nnc1-c1cccs1	inactive: 9.4%
Cn1cccc1-c1cc(C(=O)N2CCc3c([nH]c4ccccc34)C2c2ccccn2)[nH]n1 (stereo not drawn)	inactive: 5.69%
O=C(NNC(=O)c1cccc(O)c1)Nc1ccc([N+](=O)[O-])cc1	inactive: 17%
O=C(Cn1nnc(-c2ccccc2)c1COc1ccc2ccccc2c1)NCC1CC1	inactive: 22.1%
Cc1occc1C(=O)N/N=C/C(Br)=C\c1ccccc1	inactive: 21.4%
COc1ccc(C2C(C#N)=C(N)OC3=C2C(=O)CC(C)(C)C3)cc1OC (stereo not drawn)	inactive: 1.27%
CCc1nc2ccc(C(=O)NCCCN(C)C)cn2c1N(C)CCCc1ccccc1	inactive: -7.29%
O=C(O)CCSc1nnc(COc2cccc3cccnc23)n1-c1ccccc1	inactive: 6.12%
CC(C)c1ccc(/C=N/NC(=O)CC(=O)NCc2ccccc2)cc1	inactive: 2.38%

Compound	growth rescue (activation)
Cc1ccc(S(=O)(=O)NCCc2cc3ccc(C)cc3[nH]c2=O)cc1	inactive: -3.34%
C=CCNC(=S)NNC(=O)c1ccc(C)c(Cl)c1	inactive: 8.41%
COc1ccc(/C=C(\NC(=O)c2ccc(OC)c(OC)c2)C(=O)N2CCN(C)CC2)cc1	inactive: -2.28%
COc1ccc2cc(C(=O)NCC(=O)O)sc(=O)c2c1OC	inactive: 27.2%
CCC(=O)N/N=C/c1ccc(OS(=O)(=O)c2ccccc2)cc1	inactive: 17.7%
O=C(C1CC1)N1N=C(C2CCCCC2)CC1(O)C(F)(F)F (stereo not drawn)	inactive: 12.9%
Cc1ccc2[nH]c(=O)c(CN3CCCCC3)c(-c3ccccc3)c2c1	inactive: -3.23%
Cc1cc(C(=O)NCc2ccccc2Cl)c2ccccc2n1	inactive: 16%
Fc1ccc(CNc2ncccn2)cc1	inactive: 24.5%
CC(=O)Nc1ccc(C(=O)NNC(=O)c2cccs2)cc1	inactive: 6.63%
COC(=O)C(NC(C)=O)(Nc1ccc(C)cn1)C(F)(F)F (stereo not drawn)	inactive: 0.274%
CCCCN(CC)Cc1ccc(CNC(=S)Nc2ccccc2F)o1	inactive: -15.1%
CC(C(=O)N1CC2(C)CC1CC(C)(C)C2)N1C(=O)c2ccccc2C1=O (stereo not drawn)	inactive: 0.828%
OCCC1CN(Cc2cn[nH]c2C2CCCCC2)CCN1C1CCCC1 (stereo not drawn)	inactive: 14.8%
COc1ccc(/C=N/NC(=O)c2ccc(COc3cccc4cccnc34)cc2)cc1O	inactive: -3.95%
Cc1noc(C(=O)Nc2ccc(F)c(Cl)c2)c1Cl	inactive: -2.32%
O=C(CN1CCN(Cc2ccccc2Cl)CC1)N/N=C/C=C/c1ccco1	inactive: 2.66%
COc1ccc(Nc2ncnc3sccc23)c(OC)c1	inactive: -16.4%
Cc1ccc(-n2c(-c3cnccn3)n[nH]c2=S)c(Br)c1	inactive: 2.47%
COc1ccc2c3c(cccc13)OC2=O	inactive: 22%
O=C(O)CCCCCN1C(=O)C(O)=C(C(=O)/C=C/c2ccccc2)C1c1ccc2c(c1)OCO2 (stereo not drawn)	inactive: -13.5%
COC(=O)c1ccc2c(=O)[nH]c(CCl)nc2c1	inactive: -12.9%

Compound	growth rescue (activation)
COc1cc(NC(=O)c2cccs2)c(C(=O)OCC(=O)c2cc(C)n(-c3ccccc3)c2C)cc1OC	inactive: 6.12%
COc1cccc(OCc2cc(/C=N/n3cncn3)ccc2OC)c1	inactive: 10%
COc1ccc(CCN(C)C(=O)Cn2c(=O)oc3ccccc32)cc1OC	inactive: -9.43%
CCOc1cc(NC(=S)NCCCN(C)C)c(OCC)cc1NC(=O)c1cccs1	inactive: 14.8%
O=C(NCc1ccccc1Cl)c1ccc(CSc2nc3ccncc3[nH]2)cc1	inactive: -5.27%
O=C(CCl)NC1(C(F)(F)F)C(=O)Nc2c1c(=O)[nH]c(=O)n2-c1ccccc1 (stereo not drawn)	inactive: -4.84%
O=C(NCCN1C(=O)S/C(=C\c2ccccc2)C1=O)c1cc(S(=O)(=O)N2CCOCC2)c(Cl)cc1Cl	inactive: 5.8%
O=C(CSc1nnnn1C1CCCC1)N1CCCCC1	inactive: 12.1%
O=C(CC1SC(=Nc2ccccc2)N(CCO)C1=O)Nc1ccccc1 (stereo not drawn)	inactive: -5.52%
CCN(CC)S(=O)(=O)c1ccc(Cl)c(NC(=O)COc2ccc(OC)cc2[N+](=O)[O-])c1	inactive: 5.87%
COc1ccc(CSc2nnc(C)s2)cc1F	inactive: 13.2%
Fc1ccccc1NC(=S)NCc1ccc2c(c1)OCO2	inactive: 11.1%
Cc1ccnc(NC(=O)CS(=O)(=O)c2ccccc2)c1	inactive: 1.85%
CN1CCN(C(=O)c2cc(Cl)cc(Cl)c2)CC1	inactive: 4.89%
CC1(C)CC(c2nc(-c3ccccc3)cs2)CCS1 (stereo not drawn)	inactive: -13.1%
Nc1cc(S(=O)(=O)N2CCOCC2)ccc1N1CCCCC1	inactive: 19.7%
Cc1c(Cl)c([N+](=O)[O-])nn1CC(=O)N1CCCc2ccccc21	inactive: -9.86%
Cc1nc(SCC(=O)N2CCOCC2)c2c(=O)n(C)c(=O)n(CC(C)C)c2n1	inactive: 8.94%
O=C(CN(Cc1ccc(F)cc1)C(=O)CCC(=O)Nc1ccccn1)NCCc1ccccc1	inactive: 2.28%
O=C(O)CC(SCC(=O)Nc1ccc(S(=O)(=O)N2CCCC2)cc1)C(=O)O (stereo not drawn)	inactive: -8.49%

Reference: PubChem BioAssay AID1347073 (National Center for Advancing Translational Sciences (NCATS), 2019)
